Measured values taken from article PMC5612949.
Results are given in words; binding and its absence hold for the method and conditions named. Binding seen in cells or lysates may run through a third protein. Some entries that bind do so weakly or less than the wild type.

Sequences of proteins named here, by UniProt entry; tags and fusion partners are left off.
UniProt Q9UKL0: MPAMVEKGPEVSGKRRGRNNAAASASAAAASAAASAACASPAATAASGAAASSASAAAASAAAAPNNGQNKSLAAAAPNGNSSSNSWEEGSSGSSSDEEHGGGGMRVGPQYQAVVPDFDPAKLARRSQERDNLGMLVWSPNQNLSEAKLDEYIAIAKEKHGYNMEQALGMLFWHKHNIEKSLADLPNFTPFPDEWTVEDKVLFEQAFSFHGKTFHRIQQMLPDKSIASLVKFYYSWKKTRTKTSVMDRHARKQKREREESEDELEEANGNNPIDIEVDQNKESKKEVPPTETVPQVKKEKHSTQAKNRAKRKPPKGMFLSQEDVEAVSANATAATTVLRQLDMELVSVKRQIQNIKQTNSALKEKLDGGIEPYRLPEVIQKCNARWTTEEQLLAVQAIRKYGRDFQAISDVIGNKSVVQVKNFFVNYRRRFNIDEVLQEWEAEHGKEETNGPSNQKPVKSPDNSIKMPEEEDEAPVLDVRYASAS
UniProt Q92769: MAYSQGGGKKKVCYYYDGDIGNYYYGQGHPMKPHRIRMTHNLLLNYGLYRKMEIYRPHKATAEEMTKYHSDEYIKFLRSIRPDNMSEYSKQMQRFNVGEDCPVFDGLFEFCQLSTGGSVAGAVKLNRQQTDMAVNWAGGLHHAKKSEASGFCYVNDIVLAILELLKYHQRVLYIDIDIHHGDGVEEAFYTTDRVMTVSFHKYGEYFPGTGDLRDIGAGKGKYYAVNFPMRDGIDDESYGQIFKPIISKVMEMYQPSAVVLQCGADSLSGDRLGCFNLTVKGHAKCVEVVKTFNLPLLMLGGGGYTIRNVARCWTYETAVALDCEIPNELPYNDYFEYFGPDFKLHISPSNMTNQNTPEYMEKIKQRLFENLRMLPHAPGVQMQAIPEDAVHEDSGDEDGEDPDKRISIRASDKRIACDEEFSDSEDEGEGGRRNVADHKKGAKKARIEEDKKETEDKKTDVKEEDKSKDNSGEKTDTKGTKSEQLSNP
UniProt Q13547: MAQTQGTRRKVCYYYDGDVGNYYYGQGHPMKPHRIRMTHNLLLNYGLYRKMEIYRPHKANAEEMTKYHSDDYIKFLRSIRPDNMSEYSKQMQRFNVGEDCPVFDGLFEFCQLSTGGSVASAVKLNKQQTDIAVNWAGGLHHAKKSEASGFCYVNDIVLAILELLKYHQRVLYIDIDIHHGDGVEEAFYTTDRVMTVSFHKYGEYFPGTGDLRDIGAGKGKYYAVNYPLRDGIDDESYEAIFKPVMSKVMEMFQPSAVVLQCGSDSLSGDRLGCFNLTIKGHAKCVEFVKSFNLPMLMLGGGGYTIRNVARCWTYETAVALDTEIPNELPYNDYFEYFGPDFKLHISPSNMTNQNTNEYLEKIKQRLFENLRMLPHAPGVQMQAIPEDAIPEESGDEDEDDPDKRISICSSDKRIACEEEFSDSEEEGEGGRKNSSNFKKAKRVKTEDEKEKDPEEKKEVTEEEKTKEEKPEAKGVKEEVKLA

What was measured:
[1] = biological target: CoREST (corepressor of RE1 silencing transcription factor), endogenous (human (endogenous in HEK293T, MCF-7 and MDA-MB-231)) (UniProt Q9UKL0); experiment: co-IP; endogenous proteins, whole-cell lysates of MCF-7 or MDA-MB-231, immunoprecipitation with antibodies against ZNF516 or against the complex components (IgG as control), immunoblotting; lysis buffer 50 mM Tris-HCl pH 7.5, 150 mM NaCl, 0.5% NP-40, 2 mM EDTA, 4 °C
[2] = biological target: CtBP2 (C-terminal binding protein 2), endogenous (human (endogenous in HEK293T, MCF-7 and MDA-MB-231)) (UniProt P56545); experiment: as above
GST-fused CtBP2 = GST-fused CtBP2 (UniProt P56545); experiment: pull-down; GST fusion protein from E. coli immobilised on glutathione-Sepharose 4B, in vitro transcribed/translated protein (rabbit reticulocyte lysate) added for 2 h at 4 °C; 10 mM HEPES pH 7.6, 3 mM MgCl2, 100 mM KCl, 5 mM EDTA, 5% glycerol, 0.5% CA630; only the target purified
GST-fused CoREST = GST-fused CoREST (UniProt Q9UKL0); experiment: as above
GST-fused HDAC2 = GST-fused HDAC2 (UniProt Q92769); experiment: as above
GST-fused HDAC1 = GST-fused HDAC1 (UniProt Q13547); experiment: as above

binding [1] | binding [2] | binding (GST-fused CtBP2) | binding (GST-fused CoREST) | binding (GST-fused HDAC2) | binding (GST-fused HDAC1) | Binder
binds | binds | – | – | – | – | ZNF516, endogenous (protein, UniProt Q92618 1-1163) MDRNREAEMELRRGPSPTRAGRGHEVDGDKATCHTCCICGKSFPFQSSLSQHMRKHTGEKPYKCPYCDHRASQKGNLKIHIRSHRTGTLIQGHEPEAGEAPLGEMRASEGLDACASPTKSASACNRLLNGASQADGARVLNGASQADSGRVLLRSSKKGAEGSACAPGEAKAAVQCSFCKSQFERKKDLELHVHQAHKPFKCRLCSYATLREESLLSHIERDHITAQGPGSGEACVENGKPELSPGEFPCEVCGQAFSQTWFLKAHMKKHRGSFDHGCHICGRRFKEPWFLKNHMKAHGPKTGSKNRPKSELDPIATINNVVQEEVIVAGLSLYEVCAKCGNLFTNLDSLNAHNAIHRRVEASRTRAPAEEGAEGPSDTKQFFLQCLNLRPSAAGDSCPGTQAGRRVAELDPVNSYQAWQLATRGKVAEPAEYLKYGAWDEALAGDVAFDKDRREYVLVSQEKRKREQDAPAAQGPPRKRASGPGDPAPAGHLDPRSAARPNRRAAATTGQGKSSECFECGKIFRTYHQMVLHSRVHRRARRERDSDGDRAARARCGSLSEGDSASQPSSPGSACAAADSPGSGLADEAAEDSGEEGAPEPAPGGQPRRCCFSEEVTSTELSSGDQSHKMGDNASERDTGESKAGIAASVSILENSSRETSRRQEQHRFSMDLKMPAFHPKQEVPVPGDGVEFPSSTGAEGQTGHPAEKLSDLHNKEHSGGGKRALAPDLMPLDLSARSTRDDPSNKETASSLQAALVVHPCPYCSHKTYYPEVLWMHKRIWHRVSCNSVAPPWIQPNGYKSIRSNLVFLSRSGRTGPPPALGGKECQPLLLARFTRTQVPGGMPGSKSGSSPLGVVTKAASMPKNKESHSGGPCALWAPGPDGYRQTKPCHGQEPHGAATQGPLAKPRQEASSKPVPAPGGGGFSRSATPTPTVIARAGAQPSANSKPVEKFGVPPAGAGFAPTNKHSAPDSLKAKFSAQPQGPPPAKGEGGAPPLPPREPPSKAAQELRTLATCAAGSRGDAALQAQPGVAGAPPVLHSIKQEPVAEGHEKRLDILNIFKTYIPKDFATLYQGWGVSGPGLEHRGTLRTQARPGEFVCIECGKSFHQPGHLRAHMRAHSVVFESDGPRGSEVHTTSADAPKQGRDHSNTGTVQTVPLRKGT
– | – | binds | binds | no binding | no binding | in vitro transcribed/translated ZNF516 (protein, UniProt Q92618 1-1163) MDRNREAEMELRRGPSPTRAGRGHEVDGDKATCHTCCICGKSFPFQSSLSQHMRKHTGEKPYKCPYCDHRASQKGNLKIHIRSHRTGTLIQGHEPEAGEAPLGEMRASEGLDACASPTKSASACNRLLNGASQADGARVLNGASQADSGRVLLRSSKKGAEGSACAPGEAKAAVQCSFCKSQFERKKDLELHVHQAHKPFKCRLCSYATLREESLLSHIERDHITAQGPGSGEACVENGKPELSPGEFPCEVCGQAFSQTWFLKAHMKKHRGSFDHGCHICGRRFKEPWFLKNHMKAHGPKTGSKNRPKSELDPIATINNVVQEEVIVAGLSLYEVCAKCGNLFTNLDSLNAHNAIHRRVEASRTRAPAEEGAEGPSDTKQFFLQCLNLRPSAAGDSCPGTQAGRRVAELDPVNSYQAWQLATRGKVAEPAEYLKYGAWDEALAGDVAFDKDRREYVLVSQEKRKREQDAPAAQGPPRKRASGPGDPAPAGHLDPRSAARPNRRAAATTGQGKSSECFECGKIFRTYHQMVLHSRVHRRARRERDSDGDRAARARCGSLSEGDSASQPSSPGSACAAADSPGSGLADEAAEDSGEEGAPEPAPGGQPRRCCFSEEVTSTELSSGDQSHKMGDNASERDTGESKAGIAASVSILENSSRETSRRQEQHRFSMDLKMPAFHPKQEVPVPGDGVEFPSSTGAEGQTGHPAEKLSDLHNKEHSGGGKRALAPDLMPLDLSARSTRDDPSNKETASSLQAALVVHPCPYCSHKTYYPEVLWMHKRIWHRVSCNSVAPPWIQPNGYKSIRSNLVFLSRSGRTGPPPALGGKECQPLLLARFTRTQVPGGMPGSKSGSSPLGVVTKAASMPKNKESHSGGPCALWAPGPDGYRQTKPCHGQEPHGAATQGPLAKPRQEASSKPVPAPGGGGFSRSATPTPTVIARAGAQPSANSKPVEKFGVPPAGAGFAPTNKHSAPDSLKAKFSAQPQGPPPAKGEGGAPPLPPREPPSKAAQELRTLATCAAGSRGDAALQAQPGVAGAPPVLHSIKQEPVAEGHEKRLDILNIFKTYIPKDFATLYQGWGVSGPGLEHRGTLRTQARPGEFVCIECGKSFHQPGHLRAHMRAHSVVFESDGPRGSEVHTTSADAPKQGRDHSNTGTVQTVPLRKGT
